# Test results from the supplement of paper PMC4604168 (melanoma cell lines).
# The list shows a part of the results. Repeats are few or missing, and single values can be far off.
# Tests used:
# Experiment in all cases: cell count relative to DMSO control; melanoma cells; higher = more viable cells
# Conditions in all cases: library dose: low library concentration; 72 h
# MZ2-MEL = system: MZ2-MEL
# MeWo = system: MeWo
# RPMI7951 = system: RPMI7951
# RVH-421 = system: RVH-421
# SkMel28 = system: SkMel28
# SkMel2 = system: SkMel2
# SkMel30 = system: SkMel30
# SkMel5 = system: SkMel5
# UACC257 = system: UACC257
# UACC62 = system: UACC62
# 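Note: cell number obtained by counting DAPI-stained nuclei in high-throughput microscope images with image analysis software, screen run in 1,536-well plates.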
SMILES,cell count (MZ2-MEL) [%],cell count (MeWo) [%],cell count (RPMI7951) [%],cell count (RVH-421) [%],cell count (SkMel28) [%],cell count (SkMel2) [%],cell count (SkMel30) [%],cell count (SkMel5) [%],cell count (UACC257) [%],cell count (UACC62) [%]
"CC(C)C[C@H](NC(=O)[C@H](Cc1ccccc1)NC(=O)c1cnccn1)B(O)O [Bortezomib] + CN(NC(=O)CC(=O)NN(C)C(=S)c1ccccc1)C(=S)c1ccccc1 [STA4783] (first compound 0.001 µM, partner dose 0.006 µM)",75.2,76,85.9,64.6,97.5,89.4,109,104,64,85.1
"CC(C)C[C@H](NC(=O)[C@H](Cc1ccccc1)NC(=O)c1cnccn1)B(O)O [Bortezomib] + Cc1cc([N+](=O)[O-])ccc1NS(=O)(=O)c1cc(Cl)ccc1Cl [FH535] (first compound 0.001 µM, partner dose 1 µM)",70.7,86.7,75.3,9.13,68.8,85.6,76.1,67.8,89.3,67.9
"Cc1cn(-c2cc(NC(=O)c3ccc(C)c(Nc4nccc(-c5cccnc5)n4)c3)cc(C(F)(F)F)c2)cn1 [nilotinib] + C=CCn1c(=O)c2cnc(Nc3ccc(N4CCN(C)CC4)cc3)nc2n1-c1cccc(C(C)(C)O)n1 [MK1775] (first compound 0.2 µM, partner dose 0.02 µM)",103,104,102,102,90.8,84.2,78.4,94,89.1,99.1
"Cc1cc(Nc2cc(N3CCN(C)CC3)nc(/C=C/c3ccccc3)n2)n[nH]1 + O=S(=O)(c1ccccc1)N(CC(F)(F)F)c1ccc(C(O)(C(F)(F)F)C(F)(F)F)cc1 [T0901317] (first compound 0.04 µM, partner dose 1.4 µM)",97.2,88.9,113,127,85.2,103,77.6,91.1,77.8,81.9
"COc1ccc(C2=N[C@@H](c3ccc(Cl)cc3)[C@@H](c3ccc(Cl)cc3)N2C(=O)N2CCNC(=O)C2)c(OC(C)C)c1 [Nutlin-3] + OCCn1cc(-c2cnc3nnn(Cc4ccc5ncccc5c4)c3n2)cn1 [PF04217903] (first compound 0.1 µM, partner dose 1 µM)",110,94,87.8,108,83.5,100,95.5,91.6,87.9,95.5
"CC(C)C[C@H](NC(=O)[C@H](Cc1ccccc1)NC(=O)c1cnccn1)B(O)O [Bortezomib] + COc1ccc(COc2ccc(Cc3cnc(N)nc3N)cc2OC)cc1 [GW2580] (first compound 0.001 µM, partner dose 1 µM)",88.4,89.7,82.3,109,81.9,96.5,83.2,84.4,77,73.6
"COc1ccc(C2=N[C@@H](c3ccc(Cl)cc3)[C@@H](c3ccc(Cl)cc3)N2C(=O)N2CCNC(=O)C2)c(OC(C)C)c1 [Nutlin-3] + O=C(O)c1ccc(-c2c[nH]c3ncc(-c4ccccc4)cc23)cc1C1CCCC1 [GSK650394] (first compound 0.1 µM, partner dose 0.16 µM)",92.4,88.9,99.2,83,89.3,86,111,82.7,80.2,80
"Cc1cc(Nc2cc(N3CCN(C)CC3)nc(/C=C/c3ccccc3)n2)n[nH]1 + COc1ccc2c(c1)CCC1C2CCC2(C)C(NCCCCCCN3C(=O)C=CC3=O)CCC12 [U73122] (first compound 0.04 µM, partner dose 0.4 µM)",95,89.6,68.7,65.1,95.6,94.8,105,79.8,73.3,77.8
"Cn1c(=O)n(-c2ccc(C(C)(C)C#N)cc2)c2c3cc(-c4cnc5ccccc5c4)ccc3ncc21 + COc1ccc(COc2ccc(Cc3cnc(N)nc3N)cc2OC)cc1 [GW2580] (first compound 0.004 µM, partner dose 1 µM)",101,95.5,92,85.7,82.2,98.7,88.2,102,74.3,94.2
"Cc1cn(-c2cc(NC(=O)c3ccc(C)c(Nc4nccc(-c5cccnc5)n4)c3)cc(C(F)(F)F)c2)cn1 [nilotinib] + CN(NC(=O)CC(=O)NN(C)C(=S)c1ccccc1)C(=S)c1ccccc1 [STA4783] (first compound 0.2 µM, partner dose 0.006 µM)",104,98.5,104,85,116,82,97.2,107,79.1,86.6
"COc1ccc(C2=N[C@@H](c3ccc(Cl)cc3)[C@@H](c3ccc(Cl)cc3)N2C(=O)N2CCNC(=O)C2)c(OC(C)C)c1 [Nutlin-3] + Cc1cc(N2CCOCC2)cc2[nH]c(-c3c(NC[C@@H](O)c4cccc(Cl)c4)cc[nH]c3=O)nc12 [BMS536924] (first compound 0.1 µM, partner dose 0.2 µM)",99.1,95.1,120,109,102,74.1,74,91,80.1,94.2
"Cc1cc(Nc2cc(N3CCN(C)CC3)nc(/C=C/c3ccccc3)n2)n[nH]1 + O=C(CCCCCCC(=O)Nc1ccccc1)NO [vorinostat] (first compound 0.04 µM, partner dose 0.08 µM)",105,92,93,94.2,77.8,97.9,112,82.3,87.2,85
"CC(C)C[C@H](NC(=O)[C@H](Cc1ccccc1)NC(=O)c1cnccn1)B(O)O [Bortezomib] + O=S(=O)(c1ccccc1)N(CC(F)(F)F)c1ccc(C(O)(C(F)(F)F)C(F)(F)F)cc1 [T0901317] (first compound 0.001 µM, partner dose 1.4 µM)",51.4,79.9,59,72,64.4,89.4,64.6,92,87.1,60.2
"Cc1cn(-c2cc(NC(=O)c3ccc(C)c(Nc4nccc(-c5cccnc5)n4)c3)cc(C(F)(F)F)c2)cn1 [nilotinib] + CC1(C)NC(=O)N(c2ccc([N+](=O)[O-])c(C(F)(F)F)c2)C1=O [nilutamide] (first compound 0.2 µM, partner dose 1 µM)",99.8,92.8,108,78.4,108,93,95.9,94.2,93.7,96.6
"COc1ccc(C2=N[C@@H](c3ccc(Cl)cc3)[C@@H](c3ccc(Cl)cc3)N2C(=O)N2CCNC(=O)C2)c(OC(C)C)c1 [Nutlin-3] + CC1(C)NC(=O)N(c2ccc([N+](=O)[O-])c(C(F)(F)F)c2)C1=O [nilutamide] (first compound 0.1 µM, partner dose 1 µM)",99.8,98.9,109,76.7,98.5,92,124,83.2,75.4,96.1
"CC(C)C[C@H](NC(=O)[C@H](Cc1ccccc1)NC(=O)c1cnccn1)B(O)O [Bortezomib] + C[C@@H]1CCN(C(=O)CC#N)C[C@@H]1N(C)c1ncnc2[nH]ccc12 [CP690550] (first compound 0.001 µM, partner dose 1 µM)",76,85.1,78.8,66,94,93.9,89.1,103,63.7,90.8
"COc1ccc(C2=N[C@@H](c3ccc(Cl)cc3)[C@@H](c3ccc(Cl)cc3)N2C(=O)N2CCNC(=O)C2)c(OC(C)C)c1 [Nutlin-3] + Oc1cc(-c2nc(-c3ccccc3)[nH]c2-c2ccncc2)ccc1Cl [L779450] (first compound 0.1 µM, partner dose 0.2 µM)",77.7,111,92.3,77,64.2,98.8,79.5,107,80.8,60
"Cc1cn(-c2cc(NC(=O)c3ccc(C)c(Nc4nccc(-c5cccnc5)n4)c3)cc(C(F)(F)F)c2)cn1 [nilotinib] + O=c1cc(-c2cccc3c2Sc2ccccc2S3)oc(N2CCOCC2)c1 [KU55933] (first compound 0.2 µM, partner dose 1 µM)",102,104,82.4,115,98.9,98.3,108,93.5,91.9,79.6
"Cc1cc(Nc2cc(N3CCN(C)CC3)nc(/C=C/c3ccccc3)n2)n[nH]1 + Cc1cc([N+](=O)[O-])ccc1NS(=O)(=O)c1cc(Cl)ccc1Cl [FH535] (first compound 0.04 µM, partner dose 1 µM)",92.4,87.5,95.5,84,85.3,94.4,81.7,89.2,77.9,72.5
"CC(C)C[C@H](NC(=O)[C@H](Cc1ccccc1)NC(=O)c1cnccn1)B(O)O [Bortezomib] + O=C(Nc1cccc(Cl)c1)Nc1ncc(CCNc2ncnc3ccsc23)s1 [SNS314] (first compound 0.001 µM, partner dose 0.0008 µM)",89,93.8,81.5,58.4,92,110,84.3,96.3,66.6,73.9
